{"source": "PubChem BioAssay AID504333", "about": "(National Center for Advancing Translational Sciences (NCATS), 2011)", "note": "Among all 360,000 compounds or so, about 16,000 (4.4%) were called active. Inconclusive results, whose numbers are uncertain, are shown with a selection of clear calls. Calls come from the whole dose curve; as a rule, active = well fitted inhibition curve with a large enough effect; inconclusive = small, poorly fitted or top-dose-only effect; inactive = no such curve, though single readings can be large or run the other way. Where the call is inconclusive, the potency comes from a doubtful curve fit. Potency is the fitted concentration of half-maximal effect; tags give direction and shape of the fitted curve."}
{"biological_target": "Bromodomain adjacent to zinc finger domain protein 2B (Homo sapiens) (UniProt Q9UIF8)", "sequence (Q9UIF8 whole entry, looked up, the tested form may be a part)": "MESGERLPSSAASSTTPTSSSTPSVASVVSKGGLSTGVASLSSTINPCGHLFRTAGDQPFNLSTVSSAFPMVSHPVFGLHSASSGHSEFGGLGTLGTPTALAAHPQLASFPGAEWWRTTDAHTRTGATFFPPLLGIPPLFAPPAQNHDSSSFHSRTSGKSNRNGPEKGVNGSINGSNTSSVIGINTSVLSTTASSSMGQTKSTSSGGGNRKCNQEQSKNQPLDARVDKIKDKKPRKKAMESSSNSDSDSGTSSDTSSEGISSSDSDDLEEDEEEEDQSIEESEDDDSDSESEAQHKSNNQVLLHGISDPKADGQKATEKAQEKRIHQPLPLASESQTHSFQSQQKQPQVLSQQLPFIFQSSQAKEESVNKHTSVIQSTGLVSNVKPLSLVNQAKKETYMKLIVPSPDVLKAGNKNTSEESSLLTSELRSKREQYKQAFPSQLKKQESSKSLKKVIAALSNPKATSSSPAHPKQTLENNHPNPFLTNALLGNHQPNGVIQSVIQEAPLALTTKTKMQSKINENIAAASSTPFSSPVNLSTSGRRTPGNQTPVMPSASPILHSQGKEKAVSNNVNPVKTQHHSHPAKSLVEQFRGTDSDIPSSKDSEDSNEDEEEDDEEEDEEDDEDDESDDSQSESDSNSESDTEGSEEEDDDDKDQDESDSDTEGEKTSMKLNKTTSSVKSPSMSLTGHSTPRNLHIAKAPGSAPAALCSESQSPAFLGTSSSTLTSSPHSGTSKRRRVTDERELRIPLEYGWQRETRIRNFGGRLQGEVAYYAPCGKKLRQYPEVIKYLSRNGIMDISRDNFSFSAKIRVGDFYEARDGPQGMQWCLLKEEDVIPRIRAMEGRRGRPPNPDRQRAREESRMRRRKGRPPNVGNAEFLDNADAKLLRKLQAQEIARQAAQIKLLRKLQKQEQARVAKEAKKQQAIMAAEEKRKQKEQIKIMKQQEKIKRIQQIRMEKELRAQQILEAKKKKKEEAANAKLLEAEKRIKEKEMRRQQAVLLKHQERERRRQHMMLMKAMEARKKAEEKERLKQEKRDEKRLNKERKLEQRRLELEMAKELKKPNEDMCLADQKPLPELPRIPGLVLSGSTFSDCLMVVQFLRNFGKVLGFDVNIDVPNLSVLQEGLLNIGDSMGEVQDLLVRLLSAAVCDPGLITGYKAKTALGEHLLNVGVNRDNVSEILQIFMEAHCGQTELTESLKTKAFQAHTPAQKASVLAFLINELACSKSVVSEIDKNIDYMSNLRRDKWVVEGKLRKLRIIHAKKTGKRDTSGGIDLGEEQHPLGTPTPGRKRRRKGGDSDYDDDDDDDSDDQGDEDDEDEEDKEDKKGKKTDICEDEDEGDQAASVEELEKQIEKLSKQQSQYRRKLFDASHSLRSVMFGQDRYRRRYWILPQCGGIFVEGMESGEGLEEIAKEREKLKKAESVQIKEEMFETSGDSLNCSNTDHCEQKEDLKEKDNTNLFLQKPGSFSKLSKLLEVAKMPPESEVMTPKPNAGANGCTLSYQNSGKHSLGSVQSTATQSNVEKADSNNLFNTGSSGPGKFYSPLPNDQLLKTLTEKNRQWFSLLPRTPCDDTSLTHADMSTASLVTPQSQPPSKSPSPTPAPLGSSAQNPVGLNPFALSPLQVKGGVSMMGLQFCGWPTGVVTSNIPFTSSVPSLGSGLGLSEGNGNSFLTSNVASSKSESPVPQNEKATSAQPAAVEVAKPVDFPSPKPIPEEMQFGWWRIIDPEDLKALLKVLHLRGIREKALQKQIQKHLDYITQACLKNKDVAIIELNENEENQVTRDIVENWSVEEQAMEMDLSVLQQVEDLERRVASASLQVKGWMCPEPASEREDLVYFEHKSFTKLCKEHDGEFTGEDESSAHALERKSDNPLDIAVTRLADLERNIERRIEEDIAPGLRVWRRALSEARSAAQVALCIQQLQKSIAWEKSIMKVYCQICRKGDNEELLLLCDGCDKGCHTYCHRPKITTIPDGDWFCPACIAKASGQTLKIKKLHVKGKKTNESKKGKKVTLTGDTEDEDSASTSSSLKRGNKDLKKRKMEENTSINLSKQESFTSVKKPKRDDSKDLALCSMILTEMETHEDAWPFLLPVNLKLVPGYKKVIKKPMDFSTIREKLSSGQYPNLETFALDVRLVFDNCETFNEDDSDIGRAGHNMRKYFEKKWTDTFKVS", "assay": "qHTS Assay for Inhibitors of BAZ2B; note: nearly all actives have a fitted effect of over 60% in size", "details": "AlphaScreen BAZ2B-H3K14Ac peptide displacement; series mostly up to 114 µM", "procedure,_shortened": "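Compounds, titrated to a top concentration of 110 uM, were incubated 30 min at room temperature with preformed BAZ2B/acetyl-K14 H3 peptide complex (50 nM each). Proximity signal was measured by AlphaScreen after 20 min with beads.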"}
{"smiles": "OC(CCNCCc1c[nH]c2ccccc12)C(F)(F)F", "note": "(centres undefined)", "Potency": "inactive"}
{"smiles": "CCN(CC)c1ccc(/C=N/c2sc3c(c2C#N)C2CCN3CC2)c(O)c1", "Potency": "inconclusive: 28.2 µM [inhibitor, partial curve]"}
{"smiles": "CCOC(=O)c1ccc(NC(=O)c2c(O)[nH]c(=O)[nH]c2=O)cc1", "Potency": "inconclusive: 89.1 µM [inhibitor, single point]"}
{"smiles": "CN(C)c1ccc(/C=C/c2cc[n+](C)c3ccccc23)cc1", "Potency": "active: 79.4 µM"}
{"smiles": "CC(C)n1c(=O)c(C=Nc2cccc([N+](=O)[O-])c2)c(O)n(CCc2ccccc2)c1=O", "Potency": "inconclusive: 10 µM [inhibitor, full curve, poor fit]"}
{"smiles": "O=C(c1ccccc1)N1CCN(CCc2ccccc2)CC1", "Potency": "inconclusive: 89.1 µM [inhibitor, single point]"}
{"smiles": "COc1ccc(/C=C2/C(=O)NC(=S)N(C3CC3)C2=O)cc1CN1C(=O)c2ccccc2C1=O", "Potency": "active: 50.1 µM"}
{"smiles": "CCn1c(O)c(C=NCc2cccs2)c(=O)[nH]c1=O", "Potency": "inactive"}
{"smiles": "Cc1[nH]c2c(Cl)cccc2c1CCN", "Potency": "inactive"}
{"smiles": "CCN(CC)C(=O)CN1CCN(c2ccccc2F)CC1", "Potency": "inconclusive: 79.4 µM [inhibitor, single point]"}
{"smiles": "O=C(O)CCn1cc(C=C2C(=O)NC(=O)NC2=O)c(-c2ccc(Br)cc2)n1", "Potency": "inactive"}
{"smiles": "COc1cccc(C(=O)C2CCCN(Cc3cccc4c3OCO4)C2)c1", "note": "(centres undefined)", "Potency": "inconclusive: 89.1 µM [inhibitor, single point]"}
{"smiles": "O=C(CCS(=O)(=O)c1ccccc1)Nc1nnc(-c2ccco2)o1", "Potency": "active: 50.1 µM"}
{"smiles": "Cc1ccc(OCC(=O)N2CCN(Cc3ccc4c(c3)OCO4)CC2)cc1C", "Potency": "inconclusive: 70.8 µM [inhibitor, single point]"}
{"smiles": "c1ccc2c(c1)Sc1ccccc1N2CC1CN2CCC1CC2", "note": "(centres undefined)", "Potency": "inconclusive: 79.4 µM [inhibitor, partial curve]"}
{"smiles": "COc1ccc(OC)c(N2C(=O)NC(=O)/C(=C/c3ccc([N+](=O)[O-])s3)C2=O)c1", "Potency": "active: 39.8 µM"}
{"smiles": "CCN(CC)CCCNC(=O)c1c(O)c2ccccc2n(Cc2ccccc2)c1=O", "Potency": "inconclusive: 70.8 µM [inhibitor, single point]"}
{"smiles": "COc1ccc(-n2ccnc(NCCc3ccc(Cl)cc3)c2=O)cc1OC", "Potency": "inconclusive: 20 µM [inhibitor, full curve]"}
{"smiles": "COc1ccc(C(=O)C(C)(C)NO)cc1", "Potency": "inconclusive: 89.1 µM [inhibitor, single point]"}
{"smiles": "Nc1ccc2ccc3cccc[n+]3c2c1", "Potency": "inactive"}
{"smiles": "COc1cc(C(=O)NC(=S)N2C[C@H]3C[C@H](C2)c2cccc(=O)n2C3)cc(OC)c1OC", "Potency": "inconclusive: 89.1 µM [inhibitor, single point]"}
{"smiles": "Cc1c(C(=O)O)cc(-c2ccccc2)n1Cc1ccccc1", "Potency": "inconclusive: 79.4 µM [inhibitor, single point]"}
{"smiles": "CC/C(=N\\Nc1ccccc1)c1c(O)[nH]c(=O)[nH]c1=O", "Potency": "inactive"}
{"smiles": "CC1=CC(=C2C(=O)NC(=S)NC2=O)C=C(C(F)(F)F)N1C", "Potency": "inconclusive: 31.6 µM [inhibitor, single point]"}
{"smiles": "CC(=O)NC(Cc1ccc(N(CCCl)CCCl)cc1)C(=O)NC(CC(C)C)C(=O)O", "note": "(centres undefined)", "Potency": "inconclusive: 89.1 µM [inhibitor, single point]"}
{"smiles": "O=C1CC(c2ccccc2)CC(O)=C1C=NCCN1CCN(C(=O)Cc2ccccc2)CC1", "note": "(centres undefined)", "Potency": "inactive"}
{"smiles": "CNC(=O)OCc1n(C)cc[n+]1C", "Potency": "inconclusive: 89.1 µM [inhibitor, single point]"}
{"smiles": "COC(=O)C1=C(C)N(Cc2ccco2)C(=O)/C1=C\\c1ccc(N(C)C)cc1", "Potency": "inconclusive: 20 µM [inhibitor, full curve]"}
{"smiles": "C=C1[C@H]2CC[C@H]3[C@]4(C)C[C@H](O[C@H]5O[C@H](CO)[C@@H](OS(=O)(=O)O)[C@H](OS(=O)(=O)O)[C@H]5OC(=O)CC(C)C)C[C@@H](C(=O)O)[C@H]4CC[C@]3(C2)[C@H]1O", "Potency": "inactive"}
{"smiles": "CCOC(=O)C1(CCc2ccccc2)CCN(Cc2csc(C(C)=O)c2)CC1", "Potency": "inconclusive: 89.1 µM [inhibitor, single point]"}
{"smiles": "O=C(O)CSCC(=O)N(Cc1ccccc1)c1nc(-c2ccccc2)c(-c2ccccc2)s1", "Potency": "active: 50.1 µM"}
{"smiles": "CCCCc1nc2ccccc2c(=O)n1-c1ccc(Cl)cc1[N+](=O)[O-]", "Potency": "inconclusive: 50.1 µM [inhibitor, partial curve, poor fit]"}
{"smiles": "Cc1nn(CCC#N)c2c1P(=S)(N1CCCC1)OC(c1ccc(F)cc1)=N2", "note": "(centres undefined)", "Potency": "inconclusive: 79.4 µM [inhibitor, single point]"}
{"smiles": "CCOc1ccccc1CN(CCc1ccc2c(c1)OCO2)Cc1ccc(CC)cc1", "Potency": "active: 39.8 µM"}
{"smiles": "Cn1ccnc1P(=S)(c1nccn1C)N1CCOCC1", "Potency": "inconclusive: 89.1 µM [inhibitor, single point]"}
{"smiles": "Cc1ccc(-n2c(O)c(/C=N/c3ncc(Br)cc3Br)c(=O)[nH]c2=O)cc1", "Potency": "inconclusive: 89.1 µM [inhibitor, single point]"}
{"smiles": "Cn1c(O)c(C(c2ccccn2)c2c(O)n(C)c(=S)[nH]c2=O)c(=O)[nH]c1=S", "Potency": "active: 50.1 µM"}
{"smiles": "O=C(Cc1ccc(Br)cc1)N1CCN(Cc2ccccc2)CC1", "Potency": "inactive"}
{"smiles": "Cc1ccc(S(=O)(=O)N(CC(=O)N/N=C\\c2cccs2)c2cccc3cccnc23)cc1", "Potency": "inconclusive: 79.4 µM [inhibitor, single point]"}
{"smiles": "NC(=O)c1ccc(N=Cc2c(O)n(Cc3ccco3)c(=O)[nH]c2=O)cc1", "Potency": "inconclusive: 50.1 µM [inhibitor, partial curve]"}
{"smiles": "CC1(C)S[C@@H]2[C@H](NC(=O)COc3ccccc3)C(=O)N2C1C(=O)OCc1cc2ccccc2n1S(=O)(=O)c1ccccc1", "note": "(some centres undefined)", "Potency": "inconclusive: 79.4 µM [inhibitor, single point]"}
{"smiles": "O=c1[nH]c(=O)n(-c2ccccc2F)c(O)c1/C=C1\\C=Nc2ccccc21", "Potency": "inconclusive: 44.7 µM [inhibitor, partial curve]"}
{"smiles": "CCOP(=S)(OCC)Oc1cc(C)oc(=O)c1Cl", "Potency": "active: 56.2 µM"}
{"smiles": "O=c1c(/C=N/N2CCOCC2)c(O)n(-c2ccccc2)c(=S)n1-c1ccccc1", "Potency": "inconclusive: 79.4 µM [inhibitor, single point]"}
{"smiles": "COc1ccc(CCNCc2cccn2C)cc1OC", "Potency": "inconclusive: 39.8 µM [inhibitor, partial curve]"}
{"smiles": "N#CC1=C(N)Oc2n[nH]c(-c3cccs3)c2C1c1ccsc1", "note": "(centres undefined)", "Potency": "inconclusive: 89.1 µM [inhibitor, single point]"}
{"smiles": "CCN1C(=O)/C(=C/c2ccc(N(CC)CC)cc2OC)C(=O)NC1=S", "Potency": "inconclusive: 44.7 µM [inhibitor, partial curve]"}
{"smiles": "CCCCC(=O)N/N=C/c1c(O)n(CC)c(=S)[nH]c1=O", "Potency": "inconclusive: 89.1 µM [inhibitor, single point]"}
{"smiles": "CSc1ncc(/C=C2/C(=O)NC(=O)N(C3CCCCC3)C2=O)cn1", "Potency": "inconclusive: 89.1 µM [inhibitor, single point]"}
{"smiles": "O=C1NC(=O)C(=Cc2ccc(Sc3ccccc3)o2)C(=O)N1", "Potency": "inconclusive: 89.1 µM [inhibitor, single point]"}
{"smiles": "CCOC(=O)C1(CCCc2ccccc2)CCN(C2CCCC2)CC1", "Potency": "inconclusive: 89.1 µM [inhibitor, single point]"}
{"smiles": "CC(C)CC(=O)Nc1ccc(C(=O)Cn2c(=O)oc3ccccc32)cc1", "Potency": "inconclusive: 44.7 µM [inhibitor, partial curve]"}
{"smiles": "COc1ccc(OC)c(CNCCc2ccc(OC)c(OC)c2)c1", "Potency": "inconclusive: 89.1 µM [inhibitor, single point]"}
{"smiles": "CCOC(=O)c1c(C)c(P(=S)(N2CCOCC2)N2CCOCC2)n(C)c1C", "Potency": "inconclusive: 89.1 µM [inhibitor, single point]"}
{"smiles": "Cc1ccc(N2C(=O)NC(=O)/C(=C/c3ccc(-c4ccc(C(=O)O)c(Cl)c4)o3)C2=O)cc1", "Potency": "inconclusive: 79.4 µM [inhibitor, partial curve]"}
{"smiles": "Cc1ccc(C=C2C(Cl)=C(Cl)C(Cl)=C2Cl)cc1", "Potency": "active: 20 µM"}
{"smiles": "Cc1c(N=Nc2c(O)n(C)c(=O)n(C)c2=O)c(=O)n(-c2ccccc2)n1C", "Potency": "active: 35.5 µM"}
{"smiles": "O=C1NC(=S)NC(=O)C1=Cc1cccc2cc3ccccc3cc12", "Potency": "active: 31.6 µM"}
{"smiles": "Cc1ccc(N2C(=O)NC(=O)/C(=C\\C=C\\c3ccco3)C2=O)cc1C", "Potency": "active: 44.7 µM"}
{"smiles": "CCN(CC)c1ccc(/C=C2\\C(=O)NC(=O)N(Cc3ccco3)C2=O)cc1", "Potency": "active: 50.1 µM"}
{"smiles": "COc1ccc(/C=C2/C(=O)NC(=O)N(c3ccccc3)C2=O)cc1CN1C(=O)c2ccccc2C1=O", "Potency": "inconclusive: 89.1 µM [inhibitor, single point]"}
{"smiles": "Cc1cccc(C(=O)NC(Oc2ccccc2)C(Cl)(Cl)Cl)c1", "note": "(centres undefined)", "Potency": "inactive"}
{"smiles": "Cc1ccc(CN2C(=O)NC(=O)C3(Cc4c(nc5ccccn5c4=O)N4CCCCCC43)C2=O)cc1", "note": "(centres undefined)", "Potency": "inconclusive: 89.1 µM [inhibitor, single point]"}
{"smiles": "COc1ccc(NC(=O)N2CCC3(CC2)OCCO3)cc1", "Potency": "inactive"}
{"smiles": "Cc1cccc(N2CCN(C(=O)CCCCn3c(=O)[nH]c4ccsc4c3=O)CC2)c1C", "Potency": "inconclusive: 79.4 µM [inhibitor, single point]"}
{"smiles": "CC1Cc2ccccc2N1Cc1cccc(S(=O)(=O)N(C)C)c1", "note": "(centres undefined)", "Potency": "inconclusive: 35.5 µM [inhibitor, partial curve]"}
{"smiles": "Brc1cccc(CNCCc2ccc3c(c2)OCO3)c1", "Potency": "active: 56.2 µM"}
{"smiles": "COc1cc(OC)c(/C=C2\\C(=O)Nc3ccccc32)c(OC)c1", "Potency": "active: 44.7 µM"}
{"smiles": "O=C(N/N=C/c1c(O)n(Cc2ccco2)c(=O)[nH]c1=O)c1ccccc1", "Potency": "active: 79.4 µM"}
